# From PubChem BioAssay AID624296 (National Center for Advancing Translational Sciences (NCATS), 2012)
# Among all 350,000 compounds or so, about 9,900 (2.8%) were called active. Inconclusive means that the source gave no clear call. Such entries were picked first, then a sample of the others. The call rests on the fitted dose curve; in most records, active means well fitted activation curve with a large enough effect; inconclusive means small, poorly fitted or top-dose-only effect; inactive means no such curve, though single readings can be large or run the other way. No potency is given beside an inconclusive call; the fits are too rough.
# Test: A quantitative high throughput screen for small molecules that induce DNA re-replication in MCF 10a normal breast cells. Further: nearly all actives have a fitted effect of over 50% in size.
# Details: MCF 10A DNA re-replication, Hoechst nuclear intensity, 48 h; series mostly up to 46.1 µM
# Potency means the concentration at half of the fitted maximal effect; tags describe the fitted curve by direction and shape.
row,Structure (SMILES),Potency
1,Brc1cccc(CNc2nc3ccccc3n2CCN2CCCCC2)c1,"inconclusive [activator, partial curve, poor fit]"
2,CN(C)S(=O)(=O)c1ccc(-c2csc(N/N=C/c3ccco3)n2)cc1,"inconclusive [activator, single point]"
3,CS(=O)(=O)Nc1ccccc1C(=O)NCCSc1ccccc1,"inconclusive [activator, partial curve, poor fit]"
4,Cc1ccccc1CCNC(=O)c1cc(C2CC2)nc2c1cnn2C(C)C,"inconclusive [activator, partial curve, poor fit]"
5,CCC(C)Oc1cc(-c2ccnc(Nc3cccc(Cl)c3)n2)ccn1 (centres undefined),"inconclusive [activator, partial curve, poor fit]"
6,CCC(=O)Nc1ccc(Cl)c(NC(=O)c2cccc(OC)c2)c1,"inconclusive [activator, single point]"
7,COc1c(F)c(F)c(C(=O)O)c(Nc2cc(C)cc(C)c2)c1F,"inconclusive [activator, single point]"
8,CCc1noc(C)c1C(=O)N1CCN(S(=O)(=O)c2ccc(C(C)C)cc2)CC1,"inconclusive [activator, partial curve, poor fit]"
9,CN(CC(=O)NCc1ccc(F)cc1)CC(=O)Nc1ccc(Cl)c(C(F)(F)F)c1,"inconclusive [activator, single point]"
10,COC(=O)c1cc(-c2ccc(C)o2)nc2ccccc12,active: 23.1 µM
11,O=C1CC(/C=C/c2ccccc2)(C(=O)NC2CCCC2)N1c1ccc(S(=O)(=O)N2CCCC2)cc1 (centres undefined),"inconclusive [activator, single point]"
12,Cc1ccc(C(=O)NCCn2cc(SCC(=O)N3CCOCC3)c3ccccc32)cc1,inactive
13,COc1ccc(-c2nc(CSCC(=O)NC3CCCc4ccccc43)c(C)o2)cc1 (centres undefined),active: 16.4 µM
14,COC(=O)c1cc(CSc2nc3ccccc3c(=O)n2C)oc1C,"inconclusive [activator, partial curve, poor fit]"
15,CCOc1ccccc1NC(=O)CN1C(=O)COc2ccc(C)cc21,"inconclusive [activator, single point]"
16,CN1CCN(S(=O)(=O)c2ccc(NC(=O)c3ccc(Br)o3)cc2)CC1,inactive
17,COc1cccc(C(NC(C)=O)c2ccc3cccnc3c2O)c1 (centres undefined),"inconclusive [activator, single point]"
18,CCOc1ccc(NC(=S)Nc2cc(-c3ccccc3)[nH]n2)cc1,inactive
19,CCOc1cc2nc(-c3ccc(OC)c(OC)c3)nc(N3CCOCC3)c2cc1OC,"inconclusive [activator, partial curve, poor fit]"
20,N#Cc1nc(-c2ccc(OCc3ccc(Cl)cc3)cc2)oc1NCc1cccnc1,active: 11.2 µM
21,CCC(=O)N1CCc2cc(S(=O)(=O)NCCC(=O)N3CCN(c4ccccc4)CC3)ccc21,inactive
22,NS(=O)(=O)c1cccc(NC(=S)NC(=O)C23CC4CC(CC(C4)C2)C3)c1,"inconclusive [activator, full curve]"

row,Structure (SMILES),Potency
1,COCCNC(=O)C(OC(=O)c1ccco1)c1ccc(OC)cc1 (centres undefined),inactive
2,O=C(NCCCn1ccnc1)c1cc(-c2ccc(Br)cc2)on1,"inconclusive [activator, partial curve, poor fit]"
3,CN(CCCCN1CCOCC1)Cc1nc(-c2ccc3c(c2)OCO3)no1,"inconclusive [activator, partial curve, poor fit]"
4,Cc1cc(C)c(S(=O)(=O)c2ccccc2)c(OC(=O)c2c(Cl)cccc2Cl)n1,"inconclusive [activator, partial curve, poor fit]"
5,COc1ccc(Cl)cc1NC(=S)NC(=O)c1ccc2c(c1)OCO2,"inconclusive [activator, single point]"
6,O=C(NNC(=O)c1ccc(Cl)c(Cl)c1)c1cccnc1,inactive
7,COc1cccc(C2NC(=S)NC3=C2CCc2ccccc23)c1 (centres undefined),inactive
8,COc1ccc(C(=O)CC(=O)C(=O)Nc2cc(OC)c(OC)c(OC)c2)cc1,inactive
9,COc1cc(/C=C/C(=O)c2ccc3c(c2)OCCO3)cc(OC)c1OC,"inconclusive [activator, partial curve, poor fit]"
10,CN(C)CCOc1nc(-c2ccccc2)nc2c1oc1ccccc12,"inconclusive [activator, single point]"
11,CCOc1ccccc1NC(=S)NCCc1ccc(F)cc1,inactive
12,COc1ccccc1C1=NOC(C)(c2nnc(-c3cccc(Cl)c3)o2)C1 (centres undefined),"inconclusive [activator, partial curve, poor fit]"
13,CCCNc1nc2ccccc2n2c(C)nnc12,"inconclusive [activator, single point]"
14,CSC(=NC#N)N1CCN(c2ccc(Cl)cc2)CC1,"inconclusive [activator, partial curve, poor fit]"
15,Cc1cccc(-n2c(CCc3ccccc3)nnc2SCC(=O)c2ccccc2)c1,"inconclusive [activator, single point]"
16,CCOC(=O)c1ccc(NC(=O)c2ccc(NC(=O)c3ccccc3)cc2)cc1,"inconclusive [activator, single point]"
17,Cc1ccc(S(=O)(=O)/N=C2\CN(C)C(=O)N2C)cc1,inactive
18,Oc1cc(NCCN2CCOCC2)cc2cccnc12,"inconclusive [activator, partial curve, poor fit]"
19,CCOCCn1cnc2sc(C(=O)NCCCN3CCOCC3)c(C)c2c1=O,inactive
20,COc1ccc(NC(=S)N(C)CC2COc3ccccc3O2)cc1 (centres undefined),active: 0.651 µM
21,CCCc1cc(=O)oc2cc(C)cc(O)c12,"inconclusive [activator, single point]"
22,O=C(Nc1ccc2nn(-c3ccc(F)cc3)nc2c1)c1cccnc1,"inconclusive [activator, single point]"
